# Reference: paper PMC9911399, “Two distinct binding modes provide the RNA-binding protein RbFox with extraordinary sequence specificity”
# Changes are numbered by the printed parent chain; changes in the protein carry UniProt numbers. The list shows a part of the results.
# T1: RBFOX1 RRM RbFoxmut (Fox-RRM*) (Homo sapiens, UniProt Q9NWB1 109-208, R118D;E147R;N151S;E152T)
# T1 sequence: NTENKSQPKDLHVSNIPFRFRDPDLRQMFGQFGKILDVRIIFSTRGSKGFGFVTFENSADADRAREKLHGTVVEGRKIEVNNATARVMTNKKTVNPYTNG
# B1: UUCCCAG (DNA:RNA)
# RNA: GGGAGACCGGAAUUCAGAUUGUCCUUCCCAGUUAAAUCCCGUCGUAGCCACCA
# DNA 1: CAATCTGAATTCCGGTCTCCC
# DNA 2: TGGTGGCTACGACGGGATT
# B2: GGGUACG (DNA:RNA)
# RNA: B1 RNA with U25G, U26G, C27G, C28U, C29A, A30C
# DNA 1: CAATCTGAATTCCGGTCTCCC
# DNA 2: TGGTGGCTACGACGGGATT
# B3: UCUUCAC (DNA:RNA)
# RNA: B1 RNA with U26C, C27U, C28U, G31C
# DNA 1: CAATCTGAATTCCGGTCTCCC
# DNA 2: TGGTGGCTACGACGGGATT
# B4: AGAUGUG (DNA:RNA)
# RNA: B1 RNA with U25A, U26G, C27A, C28U, C29G, A30U
# DNA 1: CAATCTGAATTCCGGTCTCCC
# DNA 2: TGGTGGCTACGACGGGATT
# B5: AUAAUGA (DNA:RNA)
# RNA: B1 RNA with U25A, C27A, C28A, C29U, A30G, G31A
# DNA 1: CAATCTGAATTCCGGTCTCCC
# DNA 2: TGGTGGCTACGACGGGATT
# B6: CUAACAG (DNA:RNA)
# RNA: B1 RNA with U25C, C27A, C28A
# DNA 1: CAATCTGAATTCCGGTCTCCC
# DNA 2: TGGTGGCTACGACGGGATT
# B7: CUGCCUA (DNA:RNA)
# RNA: B1 RNA with U25C, C27G, A30U, G31A
# DNA 1: CAATCTGAATTCCGGTCTCCC
# DNA 2: TGGTGGCTACGACGGGATT
# B8: CUGGUUG (DNA:RNA)
# RNA: B1 RNA with U25C, C27G, C28G, C29U, A30U
# DNA 1: CAATCTGAATTCCGGTCTCCC
# DNA 2: TGGTGGCTACGACGGGATT
# B9: ACUAUGA (DNA:RNA)
# RNA: GGGAGACCGGAAUUCAGAUUGUCCACUAUGAUUAAAUCCCGUCGUAGCCACCA
# DNA 1: CAATCTGAATTCCGGTCTCCC
# DNA 2: TGGTGGCTACGACGGGATT
# B10: UUCAUUC (DNA:RNA)
# RNA: B1 RNA with C28A, C29U, A30U, G31C
# DNA 1: CAATCTGAATTCCGGTCTCCC
# DNA 2: TGGTGGCTACGACGGGATT
# B11: AACUGCA (DNA:RNA)
# RNA: B9 RNA with C26A, U27C, A28U, U29G, G30C
# DNA 1: CAATCTGAATTCCGGTCTCCC
# DNA 2: TGGTGGCTACGACGGGATT
# B12: GAACAUA (DNA:RNA)
# RNA: B9 RNA with A25G, C26A, U27A, A28C, U29A, G30U
# DNA 1: CAATCTGAATTCCGGTCTCCC
# DNA 2: TGGTGGCTACGACGGGATT
# B13: UGUAGUA (DNA:RNA)
# RNA: B9 RNA with A25U, C26G, U29G, G30U
# DNA 1: CAATCTGAATTCCGGTCTCCC
# DNA 2: TGGTGGCTACGACGGGATT
# B14: AGUCAAA (DNA:RNA)
# RNA: B9 RNA with C26G, A28C, U29A, G30A
# DNA 1: CAATCTGAATTCCGGTCTCCC
# DNA 2: TGGTGGCTACGACGGGATT
# B15: UUAUUCC (DNA:RNA)
# RNA: B1 RNA with C27A, C28U, C29U, A30C, G31C
# DNA 1: CAATCTGAATTCCGGTCTCCC
# DNA 2: TGGTGGCTACGACGGGATT
# B16: AGGGUUU (DNA:RNA)
# RNA: B9 RNA with C26G, U27G, A28G, G30U, A31U
# DNA 1: CAATCTGAATTCCGGTCTCCC
# DNA 2: TGGTGGCTACGACGGGATT
# B17: AGGUCGG (DNA:RNA)
# RNA: B9 RNA with C26G, U27G, A28U, U29C, A31G
# DNA 1: CAATCTGAATTCCGGTCTCCC
# DNA 2: TGGTGGCTACGACGGGATT
# B18: AGGUAAA (DNA:RNA)
# RNA: B9 RNA with C26G, U27G, A28U, U29A, G30A
# DNA 1: CAATCTGAATTCCGGTCTCCC
# DNA 2: TGGTGGCTACGACGGGATT
# B19: CUGUAGC (DNA:RNA)
# RNA: B9 RNA with A25C, C26U, U27G, A28U, U29A, A31C
# DNA 1: CAATCTGAATTCCGGTCTCCC
# DNA 2: TGGTGGCTACGACGGGATT
# B20: GACGUUU (DNA:RNA)
# RNA: B9 RNA with A25G, C26A, U27C, A28G, G30U, A31U
# DNA 1: CAATCTGAATTCCGGTCTCCC
# DNA 2: TGGTGGCTACGACGGGATT
# B21: UCGAAGA (DNA:RNA)
# RNA: B9 RNA with A25U, U27G, U29A
# DNA 1: CAATCTGAATTCCGGTCTCCC
# DNA 2: TGGTGGCTACGACGGGATT
# B22: CACGCGG (DNA:RNA)
# RNA: B1 RNA with U25C, U26A, C28G, A30G
# DNA 1: CAATCTGAATTCCGGTCTCCC
# DNA 2: TGGTGGCTACGACGGGATT
# B23: CAGUCCG (DNA:RNA)
# RNA: B1 RNA with U25C, U26A, C27G, C28U, A30C
# DNA 1: CAATCTGAATTCCGGTCTCCC
# DNA 2: TGGTGGCTACGACGGGATT
# B24: GGAGGGU (DNA:RNA)
# RNA: B9 RNA with A25G, C26G, U27A, A28G, U29G, A31U
# DNA 1: CAATCTGAATTCCGGTCTCCC
# DNA 2: TGGTGGCTACGACGGGATT
# B25: GCGCUCC (DNA:RNA)
# RNA: B9 RNA with A25G, U27G, A28C, G30C, A31C
# DNA 1: CAATCTGAATTCCGGTCTCCC
# DNA 2: TGGTGGCTACGACGGGATT
# B26: UUAAACC (DNA:RNA)
# RNA: B1 RNA with C27A, C28A, C29A, A30C, G31C
# DNA 1: CAATCTGAATTCCGGTCTCCC
# DNA 2: TGGTGGCTACGACGGGATT
# B27: CCUGAGA (DNA:RNA)
# RNA: B9 RNA with A25C, A28G, U29A
# DNA 1: CAATCTGAATTCCGGTCTCCC
# DNA 2: TGGTGGCTACGACGGGATT
# B28: GUGAGAU (DNA:RNA)
# RNA: B1 RNA with U25G, C27G, C28A, C29G, G31U
# DNA 1: CAATCTGAATTCCGGTCTCCC
# DNA 2: TGGTGGCTACGACGGGATT
# B29: CAUCUUA (DNA:RNA)
# RNA: B9 RNA with A25C, C26A, A28C, G30U
# DNA 1: CAATCTGAATTCCGGTCTCCC
# DNA 2: TGGTGGCTACGACGGGATT
# B30: UGAGUGA (DNA:RNA)
# RNA: B9 RNA with A25U, C26G, U27A, A28G
# DNA 1: CAATCTGAATTCCGGTCTCCC
# DNA 2: TGGTGGCTACGACGGGATT
# B31: UGUCUCU (DNA:RNA)
# RNA: B9 RNA with A25U, C26G, A28C, G30C, A31U
# DNA 1: CAATCTGAATTCCGGTCTCCC
# DNA 2: TGGTGGCTACGACGGGATT
# Target: T1, RBFOX1 RRM RbFoxmut (Fox-RRM*)
# Experiment: EMSA; HiTS-Eq, 1 nM pool, 10 min; buffer printed only for the single-RNA assays: 10 mM Tris pH 7.5, 150 mM NaCl, 3.4 mM EDTA, 0.001% NP-40, 30 C
# Conditions: tags: His6 N-terminal (pET28a); label: 5' 32P
# Outline: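 These values rest on relative association constants, computed from read-count changes of each RNA species versus the control reaction and normalised to the cognate motif. Reads came from free RNA recovered by 8% native PAGE after purified RbFox RRM (wild type or mutant) at increasing concentrations was equilibrated for 10 min in 50 µL with 1 nM of a 5′-radiolabelled pool with 7 randomized nucleotides and DNA-annealed flanks.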
row,Binder,binding signal
1,B1,0.103 KA relative to UGCAUGU
2,B2,0.347 KA relative to UGCAUGU
3,B3,0.089 KA relative to UGCAUGU
4,B4,0.167 KA relative to UGCAUGU
5,B5,0.13 KA relative to UGCAUGU
6,B6,0.051 KA relative to UGCAUGU
7,B7,0.0997 KA relative to UGCAUGU
8,B8,0.458 KA relative to UGCAUGU
9,B9,0.134 KA relative to UGCAUGU
10,B10,0.0736 KA relative to UGCAUGU
11,B11,0.139 KA relative to UGCAUGU
12,B12,0.115 KA relative to UGCAUGU
13,B13,0.193 KA relative to UGCAUGU
14,B14,0.0757 KA relative to UGCAUGU
15,B15,0.0689 KA relative to UGCAUGU
16,B16,0.0777 KA relative to UGCAUGU

row,Binder,binding signal
1,B17,0.117 KA relative to UGCAUGU
2,B18,0.118 KA relative to UGCAUGU
3,B19,0.136 KA relative to UGCAUGU
4,B20,0.0927 KA relative to UGCAUGU
5,B21,0.106 KA relative to UGCAUGU
6,B22,0.089 KA relative to UGCAUGU
7,B23,0.088 KA relative to UGCAUGU
8,B24,0.0845 KA relative to UGCAUGU
9,B25,0.046 KA relative to UGCAUGU
10,B26,0.0615 KA relative to UGCAUGU
11,B27,0.1 KA relative to UGCAUGU
12,B28,0.101 KA relative to UGCAUGU
13,B29,0.137 KA relative to UGCAUGU
14,B30,0.111 KA relative to UGCAUGU
15,B31,0.119 KA relative to UGCAUGU
